Hit rate of the full screen: of about 290,000 compounds, about 1,000 (0.34%) were called active. Inconclusive means that the source gave no clear call. Such entries were picked first, then a sample of the others. Rule as the data show it: active = inhibition above about 50% (passing the limit was not always enough); inconclusive = no clear call, values can overlap the other calls.
biological target: SUMO-conjugating enzyme UBC9 (Homo sapiens) (UniProt P63279); test: blockers of SAE1/SAE2–UBC9 SUMO transfer – biochemical, HTRF, uHTS, primary screen (AID 2006); conditions: HTRF SUMOylation assay, SAE1/SAE2 + UBC9, in vitro; at 35 µM; active compounds read high
Sequence of UniProt P63279 (P63279 whole entry, looked up): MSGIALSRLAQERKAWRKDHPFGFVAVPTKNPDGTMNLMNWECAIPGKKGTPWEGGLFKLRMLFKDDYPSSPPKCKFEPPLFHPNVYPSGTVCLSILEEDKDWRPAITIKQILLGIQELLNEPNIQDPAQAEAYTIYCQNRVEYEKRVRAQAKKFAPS

SMILES | inhibition
Nc1ccc2c(C(F)(F)F)cc(=O)oc2c1 | inconclusive: 67.6%
Cc1cc(C)c2c(N)c(C(=O)C(C)(C)C)sc2n1 | inactive: 11.4%
COc1ccc(CCN2C(=O)CSC2c2ccc(F)cc2)cc1 (configuration not stated) | inactive: -7.2%
CC(C)OCCCNC(=O)CN1C(=O)/C(=C/c2ccccc2F)Oc2ccccc21 | inconclusive: 58.6%
CC(C)Cn1c(SCC(=O)c2ccc(Cl)s2)nnc1-c1ccco1 | inactive: 11.2%
CCC(=O)N(Cc1cc(=O)[nH]c2ccccc12)c1ccc(C)cc1 | inactive: 10.9%
CCc1ccc(S(=O)(=O)/N=C2\C=C(Nc3ccc(C(=O)O)cc3)C(=O)c3ccccc32)cc1 | inconclusive: 82.5%
C/C(=N\NC(=O)CNc1cccc2ccccc12)c1ccccc1 | active: 79.7%
CN(C)CC(C)(C)CNS(=O)(=O)c1ccc(Cl)cc1 | inactive: -5.9%
COCCCn1c(C(=O)N2CCOCC2)cc2c(=O)n3ccccc3nc21 | active: 52%
O=c1[nH]c(=S)[nH]c2c1C(c1ccc(Br)cc1)c1c([nH]c(=S)[nH]c1=O)O2 | active: 80.3%
CCOC(=O)c1cc(-c2cc(OC)c(OC)c(OC)c2)nc2c1c(=O)[nH]c(=O)n2Cc1ccccc1 | inconclusive: 54%
COc1ccc(C(=O)Nc2cc(OC)nc(OC)n2)cc1 | inconclusive: 82.1%
CC(=O)Nc1ccc(O)c(-c2nc3ccccc3s2)c1 | inconclusive: 56.6%
Nc1c(C(=O)Nc2ccccc2F)sc2nc(-c3ccco3)ccc12 | active: 57.4%
C=CCOc1ccccc1CNc1ccc2[nH]c(=O)[nH]c2c1 | inactive: 16.5%
COc1ccc(NC(=O)CSc2nc(-c3ccco3)nc3cc(=O)[nH]n23)cc1Cl | inactive: 16.7%
COc1ccc(OC)c(-c2c3cc(O)c(=O)cc-3oc3cc(O)c(O)cc23)c1 | inconclusive: 91.3%
CN(C)[C@@H]1C(=O)C(C(=O)NCN2CCCC2)=C(O)[C@@]2(O)C(=O)C3=C(O)c4c(O)cccc4[C@@](C)(O)C3CC12 (some centres not stated) | active: 76.7%

SMILES | inhibition
NS(=O)(=O)c1ccc(N/N=C/c2ccc(O)c(O)c2O)c([N+](=O)[O-])c1 | inconclusive: 50.6%
COc1ccc(OC)c(C(=O)N2CCC(n3nccc3NC(=O)CC(C)C)CC2)c1 | inactive: -0.1%
Cc1ccc(S(=O)(=O)N[C@H](C(=O)Oc2ccc3c(C(F)(F)F)cc(=O)oc3c2)c2ccccc2)cc1 | inconclusive: 68.5%
COc1cccc(-c2nc(-c3ccccc3)c(-c3ccccc3)[nH]2)c1OCC(=O)O | inactive: 15%
O=c1oc2ccccc2cc1-c1nc2ccccc2o1 | inconclusive: 62.8%
COc1ccc(-c2cc3ccc(OCc4nn[nH]n4)cc3oc2=O)cc1 | inconclusive: 75.6%
CCCC(=O)OCCNc1cc(SCc2ccco2)c2nonc2c1[N+](=O)[O-] | active: 89.8%
COC(=O)Cc1cc(=O)oc2cc(O)ccc12 | inconclusive: 53.4%
Cc1c2cc(O)c(=O)cc-2oc2cc(O)c(O)cc12 | inconclusive: 95.3%
COC(=O)c1ccc(=O)c2nc3/c(=C/O)c(O)cc(=O)c3[nH]c12 | inconclusive: 90.2%
Cc1c(CCC(=O)NC2CC2)c(=O)oc2c(C)c(O)ccc12 | inconclusive: 65.5%
CNS(=O)(=O)c1ccc2c3c(cccc13)C(=O)N2 | inconclusive: 57.4%
O=C1CCCC2=C1C(c1ccncc1)n1c(nc3ccccc31)N2 (configuration not stated) | inconclusive: 54.7%
CCN(CC)S(=O)(=O)c1ccc2oc(C(=O)NC(C)C)c(C)c2c1 | inactive: 17.8%
Clc1cccc(Cl)c1C1Nc2cccc3cccc(c23)N1 | active: 56%
COc1ccc(-c2cc(-c3ccccc3)n3ncnc3n2)cc1 | active: 52.7%
Cc1ccc(S(=O)(=O)NC(C(=O)Oc2ccc3c(C(F)(F)F)cc(=O)oc3c2)c2ccccc2)cc1 (configuration not stated) | inconclusive: 73.9%
Cc1ccc(S(=O)(=O)/N=C2\C=C(Nc3cccc(C(=O)O)c3)C(=O)c3ccccc32)c(C)c1 | inconclusive: 59.8%
Cc1ccc2nc3c(cc(C(=O)NCCCn4ccnc4)n3C)c(=O)n2c1 | inconclusive: 60.9%

SMILES | inhibition
CC(=O)c1ccc(/C=C/c2nc3ccccc3n2C)o1 | inconclusive: 67.4%
COc1cc(-c2ccc(Nc3ccccc3C(=O)O)c(OC)c2)ccc1Nc1ccccc1C(=O)O | inconclusive: 64%
CCOC(=O)C1=C(C)OC2(O)c3ccccc3C(=O)C12O (configuration not stated) | active: 94%
Cc1nc2ccc(-c3nc4ccc(N)cc4[nH]3)cc2[nH]1 | inconclusive: 71.1%
Nc1ccc(-c2nc3cc(N)ccc3n2CCO)cc1 | inconclusive: 70.2%
CN1CCCC1CCNc1ccc2c(=O)c3ccccc3oc2c1 (configuration not stated) | inconclusive: 68.8%
Cc1ccc(S(=O)(=O)Nc2ccc(-c3nc4ccc(C)cc4s3)cc2)cc1 | inactive: -16.5%
O=C(CCS(=O)(=O)c1ccccc1)Nc1ccccc1-c1nc2ccccc2s1 | inconclusive: 54.6%
COc1ccc(-c2cn3cccnc3n2)cc1 | inconclusive: 61.1%
Cc1ccc(OCC(=O)Nc2ccc(O)c(-c3nc4ccccc4o3)c2)cc1 | inconclusive: 84.1%
CC(=O)c1ccc(N2CCN(S(=O)(=O)c3ccc4c(c3)CC(=O)N4)CC2)cc1 | inactive: -5.3%
CCNC(=S)Nc1ccc(Cl)c(C(F)(F)F)c1 | inactive: 0.2%
O=C(NCCN1CCOCC1)c1cc2c(=O)n3ccccc3nc2n1Cc1ccccc1 | inconclusive: 53%
COc1ccc(CCn2c(N)c(C(=O)NCc3ccco3)c3nc4ccccc4nc32)cc1 | active: 100%
Nc1ccc(Cc2ccc(N)c(O)c2)cc1O | inconclusive: 89.1%
COC(=O)c1ccc2c(c1)C(=O)/C(=C/c1ccc(O)cc1)O2 | inactive: 3.8%
Cc1cc(F)ccc1NC(=O)c1ccc(NS(=O)(=O)c2cc(C(C)(C)C)ccc2C)cc1 | inactive: -26.3%
NS(=O)(=O)c1ccc(N=Nc2c[nH]c(=O)c(O)c2)cc1 | inconclusive: 95.8%
COc1ccc(-c2cc3ccc(OC(C)C(=O)O)cc3oc2=O)cc1 (configuration not stated) | inconclusive: 59.1%
